According to publication PMC8876511, “Two out of Three Musketeers Fight against Cancer: Synthesis, Physicochemical, and Biological Properties of Phosphino Cu^I, Ru^II, Ir^III Complexes” (Pharmaceuticals, 2022):

Test system: pBR322 plasmid
Conditions: pBR322, 50 μM complex + 50 μM H2O2
Description: The ability of studied compounds to induce single- and/or double-strand damage to DNA was tested using gel electrophoresis of pBR322 plasmid, which naturally occurs as a covalently closed superhelical form (form I). The process of DNA degradation can lead to the formation of both the relaxed/nicked form (form II) and linear form (form III). The degree of DNA degradation was determined in a wide range of concentrations (from 2 to 1000 µM). […] Due to the lack of DNA degradation, tested compounds can probably cause fewer side effects than cisplatin. This probably makes them a safe choice as potential cancer therapeutics.
Hydrogen peroxide (H2O2) is a source of hydroxyl radicals and a strong DNA oxidant in the presence of transition metal ions and their complexes. Gel electrophoresis can determine the ability of reactive oxygen species (ROS) to cause damage to plasmid DNA. In order to identify a given type of ROS formed by the complexes in the presence of H2O2, gel electrophoresis with the specific quenchers such as: DMSO (effective ^●OH scavenger) and NaN3 (effective ^1O2 scavenger) was performed. […] Partial protection against the formation of the nicked form of DNA was noticed after adding DMSO or NaN3 to the studied complexes in the presence of H2O2 (Supplementary Material, Figure S27.). This means that the tested ruthenium and iridium complexes are able to form moderate amounts of the hydroxyl radical and singlet oxygen.
The ability of 1, 1a, 1b, 2, 2a, 2b, and starting ligands to induce plasmid DNA damage was tested with the pBR322 plasmid (C = 0.5 mg/mL). All compounds were dissolved in DMF with/without hydrogen peroxide (H2O2, C = 50 μM), dimethyl sulfoxide (DMSO, C = 1.4 mM), or sodium azide (NaN3, C = 40 mM). After incubation for 1 h at 37 °C, reaction mixtures (16 μL) were mixed with 3 μL of loading buffer (bromophenol blue in 30% glycerol) and loaded on 1% agarose gels, containing EB, in TBE buffer (90 Mm Tris–borate, 20 mM EDTA, pH = 8.0). Gel electrophoresis was performed at a constant voltage of 120 V for 120 min. […]

Compound | DNA strand breaks in the presence of H2O2
Ru(η^6-p-cymene)Cl2Ph2PCH2N(CH2CH2CH2CH3)2 [2b] | capable of causing DNA single-strand breaks and without causing double-strand breaks
CCN(CC)C[P+](c1ccccc1)(c1ccccc1)[Ir-3]([Cl])([Cl])[C]1(C)C(C)=C(C)C(C)=C1C [1a, Ir(η^5-Cp*)Cl2Ph2PCH2N(CH2CH3)2] | capable of causing DNA single-strand breaks and without causing double-strand breaks
Ru(η^6-p-cymene)Cl2Ph2PCH2N(CH2CH3)2 [1b] | capable of causing DNA single-strand breaks and without causing double-strand breaks
